Publication PMC11381347
These are yes or no findings as the source states them, for the method shown. In cells and extracts the contact can be indirect. Some binding calls cover weakened binding; strength is not graded here.

By UniProt entry, the sequences of proteins in these tests, tags left out. Where a name states a change or a piece, a line headed by the entry shows the natural chain unless it says otherwise. Chains listed by the source or under a name are the forms on record and can include a tag or linker. Residues count along the entry.
UniProt O15047: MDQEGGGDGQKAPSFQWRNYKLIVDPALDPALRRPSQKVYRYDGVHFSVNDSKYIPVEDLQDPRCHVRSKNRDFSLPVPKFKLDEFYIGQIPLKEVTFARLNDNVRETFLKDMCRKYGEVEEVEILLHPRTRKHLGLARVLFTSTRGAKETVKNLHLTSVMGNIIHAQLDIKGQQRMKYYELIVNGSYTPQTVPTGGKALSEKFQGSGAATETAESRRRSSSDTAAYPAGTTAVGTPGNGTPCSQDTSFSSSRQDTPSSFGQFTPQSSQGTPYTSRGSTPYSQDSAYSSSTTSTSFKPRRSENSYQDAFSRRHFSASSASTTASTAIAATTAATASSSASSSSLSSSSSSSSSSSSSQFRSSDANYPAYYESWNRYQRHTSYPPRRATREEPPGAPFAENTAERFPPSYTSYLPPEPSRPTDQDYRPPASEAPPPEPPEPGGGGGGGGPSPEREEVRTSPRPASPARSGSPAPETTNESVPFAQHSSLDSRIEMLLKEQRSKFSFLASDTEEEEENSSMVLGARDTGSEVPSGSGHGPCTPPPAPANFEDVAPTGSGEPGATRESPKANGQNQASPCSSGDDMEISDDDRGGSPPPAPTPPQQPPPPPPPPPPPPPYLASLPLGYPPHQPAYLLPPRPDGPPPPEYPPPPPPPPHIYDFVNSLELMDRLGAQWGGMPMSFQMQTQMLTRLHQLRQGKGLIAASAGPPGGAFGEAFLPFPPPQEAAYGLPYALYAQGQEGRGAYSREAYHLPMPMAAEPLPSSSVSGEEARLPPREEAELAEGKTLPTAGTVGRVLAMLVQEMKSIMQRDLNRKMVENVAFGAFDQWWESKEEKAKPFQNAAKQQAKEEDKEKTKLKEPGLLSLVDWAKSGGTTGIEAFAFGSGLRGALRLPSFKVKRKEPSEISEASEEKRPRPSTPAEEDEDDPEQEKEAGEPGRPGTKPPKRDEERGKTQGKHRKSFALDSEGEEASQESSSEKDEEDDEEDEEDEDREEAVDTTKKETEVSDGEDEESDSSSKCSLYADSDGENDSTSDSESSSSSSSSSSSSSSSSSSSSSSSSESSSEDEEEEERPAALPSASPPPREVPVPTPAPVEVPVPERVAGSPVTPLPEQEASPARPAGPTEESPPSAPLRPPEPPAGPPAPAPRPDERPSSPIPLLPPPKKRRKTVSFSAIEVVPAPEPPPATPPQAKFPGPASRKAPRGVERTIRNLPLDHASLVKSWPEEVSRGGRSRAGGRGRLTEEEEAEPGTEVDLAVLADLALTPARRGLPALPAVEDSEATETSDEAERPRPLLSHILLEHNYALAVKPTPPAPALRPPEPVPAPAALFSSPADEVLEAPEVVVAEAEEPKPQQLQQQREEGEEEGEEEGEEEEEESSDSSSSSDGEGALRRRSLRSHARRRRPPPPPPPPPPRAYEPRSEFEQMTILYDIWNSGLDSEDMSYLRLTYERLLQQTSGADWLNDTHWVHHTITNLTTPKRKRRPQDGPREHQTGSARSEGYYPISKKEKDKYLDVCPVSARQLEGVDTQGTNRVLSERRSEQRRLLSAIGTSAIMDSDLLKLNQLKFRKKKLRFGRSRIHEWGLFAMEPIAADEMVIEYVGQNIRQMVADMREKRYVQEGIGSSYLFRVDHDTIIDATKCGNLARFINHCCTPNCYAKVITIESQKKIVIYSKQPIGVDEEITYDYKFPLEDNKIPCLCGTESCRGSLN
UniProt Q8NFC6: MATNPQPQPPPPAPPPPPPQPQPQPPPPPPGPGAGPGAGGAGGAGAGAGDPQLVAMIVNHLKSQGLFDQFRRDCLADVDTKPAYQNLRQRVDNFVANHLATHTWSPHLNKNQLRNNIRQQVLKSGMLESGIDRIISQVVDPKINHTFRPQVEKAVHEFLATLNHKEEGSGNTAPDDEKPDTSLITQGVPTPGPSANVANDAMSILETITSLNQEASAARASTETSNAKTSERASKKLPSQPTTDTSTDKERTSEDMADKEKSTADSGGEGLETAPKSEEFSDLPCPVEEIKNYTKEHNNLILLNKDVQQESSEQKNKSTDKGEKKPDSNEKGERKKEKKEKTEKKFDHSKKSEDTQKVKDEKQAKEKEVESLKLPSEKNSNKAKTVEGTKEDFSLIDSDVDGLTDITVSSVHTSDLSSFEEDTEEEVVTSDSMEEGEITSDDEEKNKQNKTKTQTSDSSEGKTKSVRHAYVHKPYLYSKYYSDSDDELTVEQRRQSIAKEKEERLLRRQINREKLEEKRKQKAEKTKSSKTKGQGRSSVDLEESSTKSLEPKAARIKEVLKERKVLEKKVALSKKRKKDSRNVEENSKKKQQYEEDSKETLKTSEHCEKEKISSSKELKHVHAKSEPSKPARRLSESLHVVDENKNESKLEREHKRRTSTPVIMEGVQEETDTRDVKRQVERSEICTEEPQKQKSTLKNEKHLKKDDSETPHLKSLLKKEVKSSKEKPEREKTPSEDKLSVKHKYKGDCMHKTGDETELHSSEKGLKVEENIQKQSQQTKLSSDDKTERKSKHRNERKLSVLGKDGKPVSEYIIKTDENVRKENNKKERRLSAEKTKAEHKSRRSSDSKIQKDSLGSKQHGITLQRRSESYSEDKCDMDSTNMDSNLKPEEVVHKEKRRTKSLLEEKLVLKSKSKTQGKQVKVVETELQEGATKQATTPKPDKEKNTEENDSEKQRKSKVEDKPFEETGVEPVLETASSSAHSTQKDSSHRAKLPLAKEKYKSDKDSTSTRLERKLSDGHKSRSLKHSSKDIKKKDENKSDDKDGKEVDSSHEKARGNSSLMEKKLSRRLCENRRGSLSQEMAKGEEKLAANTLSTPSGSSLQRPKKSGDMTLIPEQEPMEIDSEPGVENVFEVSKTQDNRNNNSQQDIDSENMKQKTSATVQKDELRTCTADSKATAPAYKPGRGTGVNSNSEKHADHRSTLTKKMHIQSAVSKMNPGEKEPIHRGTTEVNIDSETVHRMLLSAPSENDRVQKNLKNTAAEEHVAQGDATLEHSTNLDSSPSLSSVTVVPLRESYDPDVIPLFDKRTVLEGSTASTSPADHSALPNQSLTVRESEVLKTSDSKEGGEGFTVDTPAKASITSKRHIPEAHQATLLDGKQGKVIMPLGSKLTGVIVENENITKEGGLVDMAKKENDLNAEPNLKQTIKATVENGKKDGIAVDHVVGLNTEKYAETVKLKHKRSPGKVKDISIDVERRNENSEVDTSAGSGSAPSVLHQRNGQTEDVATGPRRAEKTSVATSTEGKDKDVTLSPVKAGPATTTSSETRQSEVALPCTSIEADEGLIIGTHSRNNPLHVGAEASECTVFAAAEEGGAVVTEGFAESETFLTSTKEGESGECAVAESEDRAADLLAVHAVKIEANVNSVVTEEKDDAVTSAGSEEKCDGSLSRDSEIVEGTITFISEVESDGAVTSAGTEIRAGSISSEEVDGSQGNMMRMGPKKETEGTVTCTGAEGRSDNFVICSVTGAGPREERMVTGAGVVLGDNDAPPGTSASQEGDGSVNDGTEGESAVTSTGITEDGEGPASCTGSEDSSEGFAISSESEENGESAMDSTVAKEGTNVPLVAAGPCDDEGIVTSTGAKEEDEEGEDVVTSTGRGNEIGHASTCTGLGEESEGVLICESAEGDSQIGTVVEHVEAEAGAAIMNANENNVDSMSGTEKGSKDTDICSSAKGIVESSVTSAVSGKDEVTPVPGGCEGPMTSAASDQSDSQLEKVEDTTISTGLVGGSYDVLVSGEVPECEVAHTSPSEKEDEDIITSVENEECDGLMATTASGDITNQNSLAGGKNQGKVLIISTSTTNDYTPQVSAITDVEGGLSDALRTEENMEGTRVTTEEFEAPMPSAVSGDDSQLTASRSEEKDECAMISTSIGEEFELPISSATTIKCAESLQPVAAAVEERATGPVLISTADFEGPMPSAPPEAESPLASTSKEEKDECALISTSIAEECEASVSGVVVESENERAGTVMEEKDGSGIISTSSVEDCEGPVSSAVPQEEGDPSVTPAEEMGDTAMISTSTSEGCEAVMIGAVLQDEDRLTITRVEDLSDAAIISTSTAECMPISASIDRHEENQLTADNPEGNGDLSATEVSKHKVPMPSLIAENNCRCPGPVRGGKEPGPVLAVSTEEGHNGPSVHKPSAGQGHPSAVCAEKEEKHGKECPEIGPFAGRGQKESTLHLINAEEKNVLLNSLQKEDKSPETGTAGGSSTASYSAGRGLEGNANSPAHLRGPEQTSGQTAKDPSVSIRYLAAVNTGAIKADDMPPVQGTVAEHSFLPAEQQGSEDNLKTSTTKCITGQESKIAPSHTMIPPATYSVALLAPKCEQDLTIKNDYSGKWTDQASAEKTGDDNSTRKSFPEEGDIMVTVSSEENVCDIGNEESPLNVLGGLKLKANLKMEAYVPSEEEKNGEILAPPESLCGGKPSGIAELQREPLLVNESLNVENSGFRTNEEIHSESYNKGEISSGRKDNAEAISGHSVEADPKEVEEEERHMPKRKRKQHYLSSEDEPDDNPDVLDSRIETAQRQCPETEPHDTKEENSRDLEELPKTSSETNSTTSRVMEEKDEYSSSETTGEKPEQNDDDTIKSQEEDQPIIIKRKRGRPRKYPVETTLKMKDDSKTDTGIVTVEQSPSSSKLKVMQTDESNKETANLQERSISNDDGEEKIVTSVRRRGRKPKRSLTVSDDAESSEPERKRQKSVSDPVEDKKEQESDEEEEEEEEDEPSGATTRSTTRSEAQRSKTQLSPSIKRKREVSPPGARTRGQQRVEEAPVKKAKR
BOD1L N200 (1–200aa), expressed in 293T cells: residues 1-200 of Q8NFC6
BOD1L N200 with a W104A mutation, expressed in 293T cells (Q8NFC6, form named): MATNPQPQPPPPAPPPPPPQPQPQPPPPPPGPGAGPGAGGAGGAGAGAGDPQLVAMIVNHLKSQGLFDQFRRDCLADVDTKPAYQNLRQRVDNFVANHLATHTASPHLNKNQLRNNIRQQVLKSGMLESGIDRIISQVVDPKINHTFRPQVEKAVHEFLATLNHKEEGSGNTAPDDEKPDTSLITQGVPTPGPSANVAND
UniProt O75909: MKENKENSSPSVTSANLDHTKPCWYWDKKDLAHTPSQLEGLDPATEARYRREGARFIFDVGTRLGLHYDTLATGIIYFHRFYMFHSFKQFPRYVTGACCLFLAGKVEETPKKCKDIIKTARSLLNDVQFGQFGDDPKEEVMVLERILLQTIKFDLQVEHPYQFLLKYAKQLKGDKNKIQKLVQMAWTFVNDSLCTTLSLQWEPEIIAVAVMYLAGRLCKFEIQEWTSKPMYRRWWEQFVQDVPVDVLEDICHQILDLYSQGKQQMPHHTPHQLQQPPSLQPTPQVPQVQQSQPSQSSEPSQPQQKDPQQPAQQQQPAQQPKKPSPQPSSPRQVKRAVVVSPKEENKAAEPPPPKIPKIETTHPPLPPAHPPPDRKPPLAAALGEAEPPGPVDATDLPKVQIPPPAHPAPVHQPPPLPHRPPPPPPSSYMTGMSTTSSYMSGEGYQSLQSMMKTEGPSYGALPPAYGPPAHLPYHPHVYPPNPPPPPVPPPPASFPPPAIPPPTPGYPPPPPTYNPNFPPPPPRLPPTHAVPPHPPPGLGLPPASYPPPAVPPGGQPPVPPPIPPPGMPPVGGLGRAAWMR

What was measured:
[1] = biological target: SETD1A (wild type) (human) (UniProt O15047); test: co-IP; 293T cells transfected with tagged constructs; SETD1A constructs precipitated (anti-FLAG M2 or anti-HA agarose, overnight 4 °C), BOD1L and cyclin K detected by western blot; washes with 0.5 M STEN buffer (500 mM NaCl, 0.2% NP-40)
[2] = biological target: BOD1L N200 (1–200aa), expressed in 293T cells (human) (UniProt Q8NFC6); test: co-IP; 293T cells; BOD1L constructs precipitated (anti-FLAG M2 or anti-HA agarose, overnight 4 °C), SETD1A detected by western blot; washes with 0.5 M STEN buffer (500 mM NaCl, 0.2% NP-40)
[3] = biological target: BOD1L N200 with a W104A mutation, expressed in 293T cells (human) (UniProt Q8NFC6); test: as above
[4] = biological target: BOD1L, full-length human (human) (UniProt Q8NFC6); test: co-IP; as the other co-IPs, lysate treated with 2 mM MgCl2 and 100 U Benzonase for 2 h at 4 °C to remove nucleic acid

cyclin K (from UniProt O75909 1-580)
binding [1]: binds

SETD1A (wild type) (from UniProt O15047 1-1707)
binding [2]: binds
binding [3]: no binding
binding [4]: binds

BOD1L, full-length human (from UniProt Q8NFC6 1-3051)
binding [1]: binds
